The record followed here is the supplement of paper PMC7238544.

Molecules are shown by their SMILES. Structures can show the parent of a compound that is named as a salt. ± gives the standard deviation of the averaged measurements. This is one part of the list.
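Further: compound added 30 min before Lipofectamine 3000 lipoplex delivery, triplicate-well means expressed against DMSO vehicle control wells of the same 96-well plate.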

The test system of the first experiment is hAMSC donor 1. Put plainly: Hoechst total cell count ratio vs vehicle control; hAMSC are human adipose-derived mesenchymal stem cells given an EGFP-luciferase plasmid by lipofection; higher = more cells (less toxicity). The following applies: priming compound concentration 100 µM.
For the compound `CNCC[C@H](Oc1cccc2ccccc12)c1cccs1` [Duloxetine hydrochloride], the “Hoechst total cell count ratio” value was determined as 0.0907 ± 0.025.

On to `CN/C(=N\CCSCc1nc[nH]c1C)NC#N` [Cimetidine], for which the “Hoechst total cell count ratio” value was 1.55 ± 0.16.

Consider `COC(=O)C[C@](O)(CCCC(C)(C)O)C(=O)O[C@@H]1C(OC)=C[C@]23CCCN2CCc2cc4c(cc2[C@H]13)OCO4` [Homoharringtonine], for which the “Hoechst total cell count ratio” value is 0.518 ± 0.15.

Consider `O=c1[nH]c(=O)n([C@H]2C[C@H](O)[C@@H](CO)O2)cc1F` [Floxuridine], for which the “Hoechst total cell count ratio” value was 1.3 ± 0.062.

For `CNCCCN1c2ccccc2CCc2ccccc21` [Desipramine hydrochloride], the “Hoechst total cell count ratio” value worked out at 0.316 ± 0.12.

In the case of `COc1ccc([C@@H]2Sc3ccccc3N(CCN(C)C)C(=O)[C@@H]2OC(C)=O)cc1` [(+)-cis-Diltiazem hydrochloride], the “Hoechst total cell count ratio” value was determined as 1.79 ± 0.12.

As for `Nc1ccc(O)c(C(=O)O)c1` [Mesalamine], the “Hoechst total cell count ratio” value stood at 1.266 ± 0.0092.

In the next experiment the test system is hAMSC donor 2. Described as above. The following applies: priming compound concentration 100 µM.
As for `O=C(O)c1cc(=O)c2c(OCC(O)COc3cccc4oc(C(=O)O)cc(=O)c34)cccc2o1` [Cromolyn sodium], the “Hoechst total cell count ratio” value amounted to 1.36 ± 0.15.

Take `CC(C)C[C@@H](NC(=O)OCC1c2ccccc2-c2ccccc21)C(=O)O` [N-Fmoc-D-leucine]: the “Hoechst total cell count ratio” value amounted to 1.34 ± 0.21.

Regarding `CN1CCN(C2=Nc3cc(Cl)ccc3Nc3ccccc32)CC1` [Clozapine], the “Hoechst total cell count ratio” value came to 1.32 ± 0.11.

Turning to `CN(C)CC[C@@H](c1ccc(Br)cc1)c1ccccn1` [Dexbrompheniramine maleate], the “Hoechst total cell count ratio” value is 1.3 ± 0.12.

In the case of `CNCCCC12CCC(c3ccccc31)c1ccccc12` [Maprotiline hydrochloride], the “Hoechst total cell count ratio” value turned out to be 0.064 ± 0.025.

As for `CC12CC3CC(C)(C1)CC(N)(C3)C2` [Memantine hydrochloride], the “Hoechst total cell count ratio” value was found to be 1.19 ± 0.17.

Turning to `COc1cc(OC)c(C(=O)CCCN2CCCC2)c(OC)c1` [Buflomedil hydrochloride], the “Hoechst total cell count ratio” value turned out to be 1.11 ± 0.19.

Consider `CC(=O)CC(c1ccccc1)c1c(O)c2ccccc2oc1=O` (stereo unspecified) [Warfarin sodium], for which the “Hoechst total cell count ratio” value worked out at 1.36 ± 0.13.

As to `CN(C)CCCN1c2ccccc2CCc2ccccc21` [Imipramine hydrochloride], the “Hoechst total cell count ratio” value worked out at 0.955 ± 0.47.

`C[C@@H]1C[C@H]2[C@@H]3CCC4=CC(=O)C=C[C@]4(C)[C@@]3(F)[C@@H](O)C[C@]2(C)[C@@]1(O)C(=O)COP(=O)(O)O` [Dexamethasone sodium phosphate]: the “Hoechst total cell count ratio” value was 1.26 ± 0.15.

Consider `Cc1ccc(C)c(OCCCC(C)(C)C(=O)O)c1` [Gemfibrozil], for which the “Hoechst total cell count ratio” value came to 1.38 ± 0.2.

As for `O=C1CCC(N2C(=O)c3ccccc3C2=O)C(=O)N1` (stereo unspecified) [Thalidomide], the “Hoechst total cell count ratio” value was 0.774 ± 0.1.

In the case of `O=C1CCc2cc(OCCCCc3nnnn3C3CCCCC3)ccc2N1` [Cilostazol], the “Hoechst total cell count ratio” value amounted to 1.79 ± 0.17.

Take `CO/N=C(\C(=O)N[C@@H]1C(=O)N2C(C(=O)O)=C(COC(N)=O)CS[C@H]12)c1ccco1` [Cefuroxime]: the “Hoechst total cell count ratio” value came to 1.36 ± 0.19.

For `CNCC(O)c1ccc(O)c(O)c1` (stereo unspecified) [Racepinephrine], the “Hoechst total cell count ratio” value came to 1.16 ± 0.17.

On to `Clc1ccc2c(c1)C(N1CCNCC1)=Nc1ccccc1O2` [Amoxapine], for which the “Hoechst total cell count ratio” value turned out to be 0.108 ± 0.052.

With `CC[C@H]1OC(=O)[C@H](C)[C@@H](O[C@H]2C[C@@](C)(OC)[C@@H](O)[C@H](C)O2)[C@H](C)[C@@H](O[C@@H]2O[C@H](C)C[C@H](N(C)C)[C@H]2O)[C@](C)(O)C[C@@H](C)C(=O)[C@H](C)[C@@H](O)[C@]1(C)O` [Erythromycin], the “Hoechst total cell count ratio” value was 1.89 ± 0.24.

In the case of `CO[C@H]1/C=C/O[C@@]2(C)Oc3c(C)c(O)c4c(O)c(c(/C=N/N5CCN(C)CC5)c(O)c4c3C2=O)NC(=O)/C(C)=C\C=C\[C@H](C)[C@H](O)[C@@H](C)[C@@H](O)[C@@H](C)[C@H](OC(C)=O)[C@@H]1C` [Rifampicin], the “Hoechst total cell count ratio” value stood at 1.82 ± 0.29.

With `COC1=CC(=O)C[C@@H](C)[C@]12Oc1c(Cl)c(OC)cc(OC)c1C2=O` [Griseofulvin], the “Hoechst total cell count ratio” value was 1.5 ± 0.018.

As to `NC(=O)c1cnccn1` [Pyrazinamide], the “Hoechst total cell count ratio” value is 1.37 ± 0.32.

With `Cc1cccc(Nc2ccccc2C(=O)O)c1C` [Mefenamic acid], the “Hoechst total cell count ratio” value is 1.12 ± 0.16.

Regarding `CCC1(c2ccccc2)C(=O)NCNC1=O` [Primidone], the “Hoechst total cell count ratio” value came out at 1.5 ± 0.32.

For `CC(C)OC(=O)C(C)(C)Oc1ccc(C(=O)c2ccc(Cl)cc2)cc1` [Fenofibrate], the “Hoechst total cell count ratio” value turned out to be 1.43 ± 0.2.

`CC(=O)OCC(=O)[C@@]12OC(C)(C)O[C@@H]1C[C@H]1[C@@H]3C[C@H](F)C4=CC(=O)C=C[C@]4(C)[C@@]3(F)[C@@H](O)C[C@@]12C` [Fluocinolone acetonide 21-acetate]: the “Hoechst total cell count ratio” value is 0.964 ± 0.2.

As for `CCN(CC)CCOC(=O)C1(C2CCCCC2)CCCCC1` [Dicyclomine hydrochloride], the “Hoechst total cell count ratio” value worked out at 1.58 ± 0.13.

Consider `CCCC(=O)Nc1ccc(OCC(O)CNC(C)C)c(C(C)=O)c1` (stereo unspecified) [Acebutolol hydrochloride], for which the “Hoechst total cell count ratio” value came out at 1.23 ± 0.058.

Turning to `CN1CCN(CCCN2c3ccccc3Sc3ccc(Cl)cc32)CC1` [Prochlorperazine maleate], the “Hoechst total cell count ratio” value was determined as 0.107 ± 0.0085.

In the case of `CO/N=C(\C(=O)N[C@@H]1C(=O)N2C(C(=O)O)=C(COC(C)=O)CS[C@H]12)c1csc(N)n1` [Cefotaxime sodium], the “Hoechst total cell count ratio” value stood at 1.39 ± 0.17.

For `CC(C)C(=O)Nc1ccc([N+](=O)[O-])c(C(F)(F)F)c1` [Flutamide], the “Hoechst total cell count ratio” value was found to be 1.5 ± 0.41.

Turning to `Clc1ccc(CO/N=C(\Cn2ccnc2)c2ccc(Cl)cc2Cl)c(Cl)c1` [Oxiconazole nitrate], the “Hoechst total cell count ratio” value turned out to be 0.0323 ± 0.025.

Consider `CC1Cc2ccccc2N1NC(=O)c1ccc(Cl)c(S(N)(=O)=O)c1` (stereo unspecified) [Indapamide], for which the “Hoechst total cell count ratio” value was 1.27 ± 0.26.

On to `C[C@@H]1C/C=C/C=C/C=C/C=C/[C@H](O[C@@H]2O[C@H](C)[C@@H](O)[C@H](N)[C@@H]2O)C[C@@H]2O[C@](O)(C[C@@H](O)C[C@H]3O[C@@H]3/C=C/C(=O)O1)C[C@H](O)[C@H]2C(=O)O` [Natamycin], for which the “Hoechst total cell count ratio” value came to 2.5 ± 0.34.

As for `CNCC[C@H](Oc1cccc2ccccc12)c1cccs1` [Duloxetine hydrochloride], the “Hoechst total cell count ratio” value was 0.061 ± 0.028.

Regarding `CN/C(=N\CCSCc1nc[nH]c1C)NC#N` [Cimetidine], the “Hoechst total cell count ratio” value amounted to 1.2 ± 0.16.

Consider `COC(=O)C[C@](O)(CCCC(C)(C)O)C(=O)O[C@@H]1C(OC)=C[C@]23CCCN2CCc2cc4c(cc2[C@H]13)OCO4` [Homoharringtonine], for which the “Hoechst total cell count ratio” value was 0.15 ± 0.041.

As for `O=c1[nH]c(=O)n([C@H]2C[C@H](O)[C@@H](CO)O2)cc1F` [Floxuridine], the “Hoechst total cell count ratio” value was found to be 0.961 ± 0.056.

Turning to `CNCCCN1c2ccccc2CCc2ccccc21` [Desipramine hydrochloride], the “Hoechst total cell count ratio” value turned out to be 0.0877 ± 0.014.

As for `COc1ccc([C@@H]2Sc3ccccc3N(CCN(C)C)C(=O)[C@@H]2OC(C)=O)cc1` [(+)-cis-Diltiazem hydrochloride], the “Hoechst total cell count ratio” value came to 1.73 ± 0.18.

Regarding `Nc1ccc(O)c(C(=O)O)c1` [Mesalamine], the “Hoechst total cell count ratio” value was 1.18 ± 0.13.
